Laboratory results: patent publication US20130122005A1, “ANTICANCER COMBINATION THERAPY” (priority 2011, published 2013)

Biological target: IGF bioactivity in human serum (pooled from healthy donors, 20%)
Assay: cell-based or functional assay

- % Remaining Phosphorylation at 15 µg/mL (100 nM) Inhibitor, human serum (20%) induced IGF-1R phosphorylation: 5%
B1: antibody 60833 (antibody, human IgG1, lambda)
heavy: QVELVESGGGLVQPGGSLRLSCAASGFTFTSYWMSWVRQAPGKGLELVSSITSYGSFTYYADSVKGRFTISRDNSKNTLYLQMNSLRAEDTAVYYCARNMYTHFDSWGQGTLVTVSS[human IgG1 constant region not printed]
light: DIVLTQPPSVSGAPGQRVTISCSGSSSNIGSNSVSWYQQLPGTAPKLLIYDNSKRPSGVPDRFSGSKSGTSASLAITGLQSEDEADYYCQSRDTYGYYWVFGGGTKLTVLGQPKAAPSVTLFPPSSEELQANKATLVCLISDFYPGAVTVAWKGDSSPVKAGVETTTPSKQSNNKYAASSYLSLTPEQWKSHRSYSCQVTHEGSTVEKTVAPTECS
